According to PMC5842915 (Biochemistry, 2017):

T1: BECN1 BH3 peptide (residues 97-126) (human)
T1 peptide: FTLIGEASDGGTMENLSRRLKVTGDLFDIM

B1: full-length, human Beclin-1 (BECN1) (natural protein)
chain: not shown

How the values were obtained:
AUC = molecular target: the molecule itself; assay: AUC
SEC-MALS = molecular target: the molecule itself; assay: SEC-MALS
[1] = molecular target: V250A/M254A/L261A mutant of full-length BECN1 (human, UniProt Q14457, V250A | M254A | L261A); assay: ITC
[2] = molecular target: T1, BECN1 BH3 peptide (residues 97-126); assay: ITC
[3] = molecular target: BECN^1-265 (BECN1 residues 1-265, BARA-less construct) (human, UniProt Q14457 1-265); assay: ITC
[4] = molecular target: B1; assay: ITC

Kd [1] [nM] | dH [2] [kcal/mol] | stoichiometry N [2] | Kd [3] [nM] | dH [3] [kcal/mol] | stoichiometry N [3] | Kd [4] [nM] | dH [4] [kcal/mol] | stoichiometry N [4] | Binder | Kd (AUC) [nM] | Kd (SEC-MALS) [nM]
– | – | – | – | – | – | – | – | – | B1 | 390 | ~480
2700 ± 700 | -3.8 | 1.02 | 9100 | -8.3 | 0.87 | 4300 | -7.9 | 1.01 | human Bcl-2 ([…]) (domain or fragment) not shown | – | –
